Measured values from PMC6919601, “Identification of Plasmodium dipeptidyl aminopeptidase allosteric inhibitors by high throughput screening” (PLoS ONE, 2019).
Hit rate of the full screen: of about 110,000 compounds, about 230 (0.21%) showed an effect of 50% or more. The list shows a part of the results.

target: DPAP1 (Plasmodium falciparum, UniProt Q8IIJ9); test: primary screen, percent inhibition; read by cleavage of a fluorogenic dipeptide substrate; higher = more effect of the substance; design: species or system P. falciparum D10 trophozoite lysates; single well
Sequence (Q8IIJ9 whole entry, looked up): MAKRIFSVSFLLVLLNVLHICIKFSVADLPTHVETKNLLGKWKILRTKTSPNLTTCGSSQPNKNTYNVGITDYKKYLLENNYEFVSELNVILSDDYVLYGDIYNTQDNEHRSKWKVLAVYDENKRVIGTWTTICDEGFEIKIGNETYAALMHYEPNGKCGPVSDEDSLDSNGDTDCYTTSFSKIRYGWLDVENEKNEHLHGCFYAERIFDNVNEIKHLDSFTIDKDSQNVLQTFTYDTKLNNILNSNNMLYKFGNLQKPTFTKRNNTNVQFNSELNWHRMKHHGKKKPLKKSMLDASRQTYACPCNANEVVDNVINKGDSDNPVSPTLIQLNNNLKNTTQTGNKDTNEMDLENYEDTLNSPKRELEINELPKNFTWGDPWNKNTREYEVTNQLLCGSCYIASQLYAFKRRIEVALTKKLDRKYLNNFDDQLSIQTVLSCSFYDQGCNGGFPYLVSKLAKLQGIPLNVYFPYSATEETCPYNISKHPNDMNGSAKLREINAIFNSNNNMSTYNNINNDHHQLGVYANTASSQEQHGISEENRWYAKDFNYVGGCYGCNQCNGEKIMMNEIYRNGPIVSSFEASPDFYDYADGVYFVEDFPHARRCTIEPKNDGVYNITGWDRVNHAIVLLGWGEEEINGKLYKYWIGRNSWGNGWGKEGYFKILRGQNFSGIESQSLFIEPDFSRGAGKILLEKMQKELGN
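Also: 30 min substrate incubation versus DMSO and 10 µM JCP410 controls.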

Row | SMILES | % Inhibition @ 10 uM
1 | Cc1ccc2onc(CC(=O)N3CCCC3)c2c1 | 1.79%
2 | O=S(=O)(Nc1ccc(-c2cn3cccnc3n2)cc1)c1ccccc1 | 0.13%
3 | COc1ccc(N2CCN(Cc3ccc(OC)c(Br)c3)CC2)cc1 | -0.969%
4 | O=C(CCc1cn(Cc2ccccc2Cl)c2ccccc12)NC1CC1 | -0.574%
5 | CCOc1cc(/C=C2/NC(=O)N(c3ccccc3)C2=O)ccc1OCC(N)=O | 1.28%
6 | CCc1ccc(NC(=O)COc2ccccc2)cc1 | 0.993%
7 | CCOc1ccc(CCNCc2c(C(=O)O)n(CC)c3cc(C)ccc23)cc1 | -0.397%
8 | COc1cc(OC)c(OC)cc1/C=C1\CN(C)C/C(=C\c2cc(OC)c(OC)cc2OC)C1=O | 2.59%
9 | COc1cccc(CN2CCN(Cc3ccc(SC)cc3)CC2)c1 | 3.04%
10 | CCOC(=O)c1ccc2c(c1)c1c(n2CC)C(=O)CCC1 | 4.9%
11 | COc1ccc(C(=O)Nc2nc(-c3nnn(-c4cc(F)ccc4F)c3C)ns2)cc1 | -5.13%
12 | Cc1c(CNCc2ccc3c(c2)OCO3)c(C(=O)O)c(C)n1Cc1ccccc1F | -3.67%
13 | O=c1oc2cc(O)cc(O)c2c2c1CCC2 | -4.32%
14 | Clc1cccc(N2CCN(CCc3ccccc3)CC2)c1 | -1.64%
15 | COc1ccc(C(=O)c2ccccn2)cc1 | 4.22%
16 | CCOc1ccc(/C=C2\Sc3ccccc3C2=O)cc1OC | 1.01%
17 | CCCNC(=O)c1ccc2c(c1)sc1nc(-c3ccc(F)cc3)cn12 | 5.11%
18 | CCOc1ccccc1-n1nnc(-c2nsc(NC(=O)c3ccccc3)n2)c1C | -3.2%
19 | O=c1oc2ccc(Cl)cc2n1Cc1ccc(Cl)cc1 | 0.687%
20 | Cc1cccnc1NC(=O)Nc1ccccc1Cl | -6.22%
21 | COc1ccc(S(=O)(=O)N(CC(N)=O)c2cc(C)cc(C)c2)cc1OC | -3.13%

Row | SMILES | % Inhibition @ 10 uM
22 | O=C(CCCn1sc2ccccc2c1=O)NCc1ccco1 | -4.68%
23 | O=C(Nc1cccnc1Cl)c1cc(-c2ccco2)on1 | 0.0221%
24 | COc1ccc(/N=C2/S/C(=C\c3cc(C)n(C)c3C)C(=O)N2C)cc1 | -4.49%
25 | Cc1ccc2nc(NC(=O)c3nc(S(=O)(=O)Cc4ccccc4F)ncc3Cl)sc2c1 | 4%
26 | O=C(CSc1nc(-c2ccc(F)cc2)cc(C(F)(F)F)n1)NCCN1CCOCC1 | -2.75%
27 | CCN(CC)c1ncnc2sc(C(=O)N3CCC(Cc4ccccc4)CC3)c(C)c12 | -0.458%
28 | CC[C@@H](C)[C@@H](CS(=O)(=O)N[C@@H](CCc1ccccc1)C(=O)COc1ccc2c(c1)OCO2)NC(=O)OCc1ccccc1 | -0.778%
29 | O=C(O)CCCCc1ccc(C(=O)c2ccccc2)s1 | -1.74%
30 | CCOC(=O)N1CCN(c2c(NC(CC)Cc3ccccc3)c(=O)c2=O)CC1 (centres unmarked) | -1.44%
31 | CCN(CC)C(=O)CN(c1ccccc1Cl)S(=O)(=O)c1ccccc1 | 2.53%
32 | CC(=O)c1cccc(NC(=O)c2ccc(COc3cccc(Cl)c3)o2)c1 | 0.52%
33 | CC(=O)c1cc2c(cc1NC(=O)c1cccc(C)c1)OCO2 | 0.145%
34 | CC1CN(Cc2nc3c(c(=O)n(C)c(=O)n3C)n2Cc2ccc(Cl)cc2Cl)CC(C)O1 (centres unmarked) | -2.29%
35 | CCN(CC)CCCNC(=O)Cn1ncc2c3ccccc3n(Cc3ccc(F)cc3)c2c1=O | -7.1%
36 | COc1ccc(Br)cc1CNC(=O)C1CCN(S(C)(=O)=O)CC1 | -3.12%
37 | CCOc1ccc(CCNC(=O)CS(=O)(=O)Cc2nc(-c3ccccc3F)oc2C)cc1 | -0.138%
38 | O=C(Cn1c(C(=O)O)cc2ccccc21)c1ccccc1 | -1.75%
39 | COc1ccccc1CNC(=O)c1ccc2c(O)nc3c(-c4ccccc4)nnn3c2c1 | -3.85%
40 | Cn1c(-c2nonc2NC(=O)c2ccccc2Cl)nc2ccccc21 | 1.35%
41 | CN(C)S(=O)(=O)c1ccc(C(=O)C2=C(O)C(=O)N(CCN3CCCCC3)C2c2ccccc2)cc1 (centres unmarked) | -3.45%
42 | COc1ccc(CCNC(=O)CCCCCn2nnc3ccccc3c2=O)cc1OC | 4.02%

Row | SMILES | % Inhibition @ 10 uM
43 | Cc1onc(-c2c(Cl)cccc2Cl)c1C(=O)N(Cc1ccccc1)c1ccccn1 | -2.35%
44 | COC(=O)c1ccc(Cn2nc(C(F)(F)F)cc2C)cc1 | -1.33%
45 | Cc1cc2c(c(=O)n1CCc1ccccc1)C(c1ccccc1F)C(C#N)=C(N)O2 (centres unmarked) | 16.1%
46 | COc1ccc(C)cc1N(CC(=O)Nc1ccc(Cl)cc1)S(C)(=O)=O | -5%
47 | O=C(C1=C(O)C(=O)N(CC2CCCO2)C1c1ccccc1)c1ccc2c(c1)OCCO2 (centres unmarked) | -0.473%
48 | COCCCNC(=O)c1cnn2c(C(F)(F)F)cc(-c3cccs3)nc12 | -2.26%
49 | CC(C)N1CCN(c2ccc(O)cc2)CC1 | 0.993%
50 | Cc1cccc(-c2noc(COc3ccc(Br)cc3Cl)n2)c1 | 4.85%
51 | O=C(O/N=C1\CCCc2oc3c(c21)CCCC3)c1ccc(Cl)cc1 | -11.6%
52 | CC(C)CC(=O)Nc1ccc(-c2nc(O)c3ccccc3n2)cc1 | 0.331%
53 | O=C(NCc1ccc(F)cc1)c1ccc(CN2CC(=O)N3CCCCC3C2=O)cc1 (centres unmarked) | -2.5%
54 | CCCNC(=O)C1Sc2nnc(C)n2NC1c1ccc(OC)c(Cl)c1 (centres unmarked) | 1.72%
55 | NC(=O)c1sc2nc(N3CCOCC3)c3c(c2c1N)CCCC3 | 50.2%
56 | Cc1ccc(OCCCN2CCCC2)c(C)c1 | -3.94%
57 | COc1ccc(OC)c(C2NC(=O)NC(C)=C2C(=O)OC(C(F)(F)F)C(F)(F)F)c1 (centres unmarked) | -2.87%
58 | CCOc1ccccc1C1C(C(=O)Nc2cccnc2)=C(C)Nc2nc(-c3ccc(OC)cc3)nn21 (centres unmarked) | -1.47%
59 | CCc1ccc(Oc2nc3ccccn3c(=O)c2/C=C(\C#N)C(=O)NC2CCS(=O)(=O)C2)cc1 (centres unmarked) | -4%
60 | CN(C)c1ccc(NC(=O)C2C3C=CC(O3)C2C(=O)O)cc1 (centres unmarked) | -13.5%
61 | CCOc1ccccc1CN1CCN(C/C=C/c2ccccc2)CC1 | 0.605%
62 | O=C1c2cccc3cccc(c23)C(=O)N1CCOCc1ccccc1 | -1.32%
